The campaign covered roughly 44,000 compounds. About 340 (0.77%) were called active. Not shown: some 5% with an inconclusive outcome. The call rests on the fitted dose curve; in most records, active means well fitted inhibition curve with a large enough effect; inconclusive means small, poorly fitted or top-dose-only effect; inactive means flat fitted curve, though single readings scatter. The list shows a part of the results.
Assay: Acumen qHTS Assay for Inhibitors of the mTORC1 Signaling Pathway in MEF (Tsc2-/-, p53-/-) Cells: Sytravon; further: nearly all actives have a fitted effect of over 50% in size;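 on activity change, negative = inhibition: plate controls were DMSO for no effect and rapamycin for full effect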
Conditions: phospho-rpS6 immunofluorescence/PI, 24 h; series mostly up to 38.3 µM; activity change, negative = inhibition: at the top concentration
Procedure, shortened: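 Cell-based qHTS: Tsc2-/- p53-/- MEF, 24 h cpd, 37 °C; fix/perm, anti-phospho-S6 Alexa-488 + PI; Acumen 488 nm scan; pS6/PI ratio, % positive cells; rapamycin 7.5 nM = inhibition ref; PI count = viability.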
Potency means the concentration at half of the fitted maximal effect.

Activity change, negative = inhibition, inactive:
Cc1ccccc1OCC(=O)Nc1ccc(-c2nc3cc(Cl)cc(Cl)c3o2)cc1 -3.38%
COc1cccc(NC(=O)N(CCC(C)C)C2CCN(C(C)C)CC2)c1 0.428%
Cc1ccc(CNC(=O)C2CCN(S(=O)(=O)c3ccc4nc5c(c(C(=O)O)c4c3)CC(C)CC5)CC2)cc1 (stereo not given) -11.5%
CCc1cnc2c(c1SCC(=O)NCc1ccc(C)cc1)c(=O)n(C)c(=O)n2C 1.72%
Cn1ccc2c(OCC(=O)Nc3ccc(OC(F)(F)F)cc3)cccc2c1=O -9.76%
CC(=O)c1ccc(NS(=O)(=O)c2ccc(Br)s2)cc1 4.74%
CCn1cc(C(=O)N2CCN(c3cc(Cl)ccc3C)CC2)c(=O)c2cc(S(=O)(=O)N3CCCC3)ccc21 0.418%
COc1cc(Cl)c(C)cc1NC(=O)c1cc2c(=O)oc3ccccc3c2s1 -8.17%
CC(C)(C)C1CCc2c(sc(NC(=O)c3ccco3)c2C(=O)Nc2ccccc2Cl)C1 (stereo not given) 0.807%
COc1cc2nc(SCC(=O)Nc3ccccc3C)n3nc(CCn4c(C)nc5ccccc54)nc3c2cc1OC -2.49%
CCOCCCNC(=O)c1cn(CC)c2ccc(S(=O)(=O)N3CCOCC3)cc2c1=O -1.91%
CCOC(=O)CSc1nc2ccc(NC(=O)COc3ccc(F)cc3)cc2s1 -3.98%
Cc1cccc2sc(N(Cc3cccnc3)C(=O)CCOc3ccccc3)nc12 -14.4%
CCOC(=O)c1ccc(N2CCN(c3ccccc3OC)CC2)c(NC(=O)Nc2ccc(CC)cc2)c1 0%
Cc1cc(C(=O)N2CCN(c3cccc(Cl)c3)CC2)c2c(C)nn(-c3ccccc3Cl)c2n1 -5.53%
COc1ccc(CNC(=O)C2=CC(c3ccc(OC)c(OC)c3)=NS(=O)(=O)N2C)cc1 -7.88%
CCOc1ccc(NC(=O)N(Cc2cn(CC)c3ccccc23)C2CCCCCC2)cc1 -2.3%
COc1ccc(S(=O)(=O)c2c(Nc3ccc(C)cc3C)sc(C(=O)c3ccc(F)cc3)c2N)cc1 1.97%
Cc1cc(C)c(NC(=O)C2CCN(S(=O)(=O)c3c(C)noc3/C=C/c3ccccc3F)CC2)c(C)c1 -7.25%
CN(C)c1ccc(C(CNC(=O)c2ccccc2Cl)N2CCCC2)cc1 (stereo not given) 0%
Cc1nnsc1C(=O)Oc1ccc(Cl)cc1 -0.0768%
CN1C(=O)Cc2cc(S(=O)(=O)NCc3ccc(Cl)cc3)ccc21 -6.83%
O=C(NCc1ccccc1)C(=O)NCC(c1cccs1)S(=O)(=O)c1cccs1 (stereo not given) -1.13%
COc1ccc(N2CCN(CCCNC(=O)c3cnn(-c4ccc(C)cc4)c3-n3cccc3)CC2)cc1 0.47%
COc1cccc(N2CCN(C3=NS(=O)(=O)C(c4ccc(C)cc4)=C3C)CC2)c1 0.907%
Cc1ccc(Cn2c(=O)n(CCCCC(=O)NCc3ccc4c(c3)OCO4)c(=O)c3ccccc32)cc1 7.4%
CCC(Sc1nnc2c(n1)[nH]c1ccccc12)C(=O)Nc1ccccc1OC (stereo not given) -4.93%
CCc1ccccc1S(=O)(=O)Cc1ccc(C(=O)NCCc2ccc(C)cc2)o1 1.97%
Cc1cc(C)cc(C(=O)NCCc2csc(-c3ccc(C(F)(F)F)cc3)n2)c1 1.55%
CCc1ccccc1NC(=O)CSc1ncc2c(n1)-c1cc(Cl)ccc1N(Cc1ccccc1)S2(=O)=O 4.48%
Cc1c(C(=O)OCC2CCCCC2)[nH]c2c1C(=O)CC(c1ccccc1Cl)C2 (stereo not given) -1.28%
COc1ccc(CCNC(=O)CCc2c(C)nc3c4cccnc4nn3c2C)cc1OC -3.42%
CCCCn1cc(S(=O)(=O)c2ccc(OC)cc2)c(=O)c2cc(F)c(N3CCOCC3)cc21 -1.5%
COc1ccc(NC(=O)c2ncn(-c3ccccc3)n2)cc1Cl -3.21%
CCc1ccc(-n2nc(C)c3c(C)cc(=O)n(CC(=O)Nc4cc(C)ccc4C)c32)cc1 -12%
Cc1ccc(N2C(=O)c3n[nH]c(C)c3C2c2ccccc2Cl)cc1 (stereo not given) -17.9%
CC(=O)Nc1c(C)nn(-c2ccccc2)c1N1CCC(C(=O)Nc2cc(F)ccc2F)CC1 13.7%
COc1ccccc1NC(=O)N1CCN(Cc2nc3ccc(C)cc3o2)CC1 0%
Cc1cc2c(cc1NS(=O)(=O)c1ccc(NC(=O)CC(C)C)cc1)n(C)c(=O)c(=O)n2C -8.13%
Cc1cc(C)c(NC(=O)Cn2c(=O)n(CC3CCCO3)c(=O)c3ccccc32)c(C)c1 (stereo not given) 9.06%
Cn1cc(S(=O)(=O)N2CCCC2)cc1C(=O)N1CCN(c2cccc(Cl)c2)CC1 8.55%
COc1ccc(C2=NS(=O)(=O)N(C)C(C(=O)N(C)Cc3ccccc3)=C2)cc1OC 0.573%
Cc1ccccc1OCc1nc2ccccc2n1Cc1ccccc1Cl -20.7%
CC(=O)c1ccc(NC(=O)CSc2cn(CC(=O)N(C(C)C)C(C)C)c3ccccc23)cc1 -11%
CCS(=O)(=O)N1CCc2cc(C(=O)Nc3cccc(C(C)=O)c3)ccc21 -6.87%
CCCCN(CC)C(=O)CCNS(=O)(=O)c1ccc2c(c1)c(=O)n(C)c(=O)n2C -18.2%
CC(C)CCn1c(Oc2ccccc2F)nc2c1c(=O)n(C)c(=O)n2C 2.13%
CCCNC(=O)Cn1c(=O)c2cccn2c2cccnc21 2.32%
CCCNC(=O)C1Cc2cc(S(=O)(=O)N3CCCCCC3)ccc2N1C(C)=O (stereo not given) 14.1%
CCCn1cnc2cc(NCc3ccccc3OCC)ccc21 0.328%
CCn1c(C(=O)NCc2ccccc2Br)cc2oc3ccccc3c21 -4.01%
COC(=O)c1ccc(C(=O)OC)c(NC(=O)c2cc3nc(-c4ccc(C)cc4)cc(C(F)(F)F)n3n2)c1 2.48%
CCc1cc(=O)oc2c(C)c3c(cc12)CN(CCc1ccccc1OC)CO3 -2.28%
COCCCNC(=O)c1sc2nc(C)c(C(=O)Nc3ccc(C)cc3C)c(-c3ccccc3Cl)c2c1N -8.74%
CCCNC(=O)CCCN1C(=O)CCn2nc(-c3cccn3C)cc21 -4%
CCc1ccc2oc(-c3ccc(NC(=O)c4cc5ccccc5o4)cc3)nc2c1 -7.31%
COc1ccc(C(=O)NCc2ccc3c(c2)CCN3C(=O)c2ccccc2)cc1 -0.155%
COc1ccc(NS(=O)(=O)c2ccc(-c3cnc(C4CC4)o3)cc2)cc1Cl -17.1%
O=C(CCSCc1cnn(-c2ccccc2)c1-n1cccc1)NCc1ccccc1Cl -13.6%

Potency, active:
CCCOc1cccc(C2c3c(-c4ccccc4O)n[nH]c3C(=O)N2Cc2ccco2)c1 (stereo not given) 14.7 µM

Reference: PubChem BioAssay AID493208 (National Center for Advancing Translational Sciences (NCATS), 2011)
